Reference: PubChem BioAssay AID1347417 (National Center for Advancing Translational Sciences (NCATS), 2020)
Where “and” joins values, the source holds several entries; their conditions need not be identical. Equal values may be shown once. Among all 120,000 compounds or so, about 5,300 (4.4%) were called active. Inconclusive means that the source gave no clear call. Such entries were picked first, then a sample of the others. Calls come from the whole dose curve; as a rule, active = well fitted inhibition curve with a large enough effect; inconclusive = small, poorly fitted or top-dose-only effect; inactive = no such curve, though single readings can be large or run the other way. Where the call is inconclusive, the potency comes from a doubtful curve fit.

assay: qHTS Primary assay for Inhibitors of Plasmodium falciparum Dd2 growth in vitro; note: nearly all actives have a fitted effect of over 65% in size;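 for activity, negative = inhibition: plate controls were DMSO vehicle for no effect and reference drug for full effect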; details: P. falciparum Dd2 growth, SYBR Green, 72 h; activity, negative = inhibition: at 28.9 µM (top of the series) unless noted; series mostly up to 28.9 µM
Method in brief: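 Readout: SYBR Green fluorescence, 485 nm excitation, 535 nm emission, after ~16 h lysis at 37C. Before that, Dd2-infected red cells (2.5% hematocrit) grew 72 h with compound, 29 uM top final concentration.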
Potency is the fitted concentration of half-maximal effect; tags give direction and shape of the fitted curve.

SMILES	Potency	activity, negative = inhibition
CC(CCc1ccccc1)NC(=O)c1ccc2nccn2c1 (stereo not drawn)	inconclusive: 31.6 µM [inhibitor, single point]	–
CCCN(CCC)CCNC(=O)C1CCCN(S(=O)(=O)c2cccc3nsnc23)C1 (stereo not drawn)	inconclusive: 6.31 µM [inhibitor, partial curve, poor fit]	–
O=C(CN1C(=O)NC(c2ccccc2Cl)C2=C1COC2=O)Nc1ccc(F)c(F)c1 (stereo not drawn)	inactive	–
CCC1=C(c2ccc(C)cc2)S(=O)(=O)N=C1N1CCC(C(=O)NCc2ccccc2Cl)CC1	inconclusive: 10 µM [inhibitor, single point]	–
CCc1ccc(NC(=O)N2CCC(Oc3ncccc3C(=O)N3CCOCC3)C2)cc1 (stereo not drawn)	inconclusive: 3.98 µM [inhibitor, single point]	–
O=C1CN(C(=O)C2CCN(c3nc(-c4ccccc4)nc4c3CCC4)CC2)CCN1	inconclusive: 11.2 µM [inhibitor, single point]	–
CN(C)CCNC(=O)c1nc2nc(-c3ccccc3)c(-c3cccc(Cl)c3)cc2n1C	inconclusive: 2.82 µM [inhibitor, full curve, poor fit]	–
COCc1ccc2c(c1)c(OC(C)(C)C(=O)N1CCOCC1)nn2Cc1cccc(OC)c1	inconclusive: 0.447 µM [inhibitor, partial curve]	–
C[C@H]1[C@@H]2[C@@H](O)[C@H]([C@H](C)C(=O)N3CCCC3)CC[C@@]2(C)CC[C@@H]1NC(=O)c1cccc(F)c1	inconclusive: 17.8 µM [inhibitor, single point]	–
COCc1nc(C2CC(N)C2)cc(N2CCCN3CCC[C@H]3C2)n1 (stereo partly drawn)	inconclusive: 11.2 µM [inhibitor, partial curve, poor fit]	–
COC(=O)c1ccc(Cn2c(SCC(=O)N(C)c3ccccc3)nc3ccccc32)cc1	inconclusive: 17.8 µM [inhibitor, single point]	–
CN(Cc1cccc(O)c1)C(=O)[C@H]1C[C@@H](C(=O)O)N(C)[C@H]1c1ccccc1F	inactive	–
NC(=O)[C@H](Cc1cccs1)NC(=O)[C@@H]1C[C@@H](NC(=O)c2cnccn2)CCN1C(=O)c1ccco1	inactive	–
CC(C)Cn1cc(C(=O)N2CCN(c3cccc(Cl)c3)CC2)c2c3ccccc3n(C)c2c1=O	inconclusive: 5.62 µM [inhibitor, partial curve, poor fit]	–
CC(=O)N1CCCc2cc(S(=O)(=O)N3CCCC(C(=O)Nc4cccc(Cl)c4C)C3)ccc21 (stereo not drawn)	inconclusive: 5.01 µM [inhibitor, partial curve]	–
Cc1ccc(C(C)C)c(OCC(=O)N2CCN(CCc3ccncc3)CC2)c1	inconclusive: 10 µM [inhibitor, single point]	–
CCOc1cc2[nH]c(=O)n(CCCC(=O)N3CCN(c4cccc(Cl)c4)CC3)c(=O)c2cc1OCC	inconclusive: 10 µM [inhibitor, single point]	–
COc1ccc(OC)c(NC(=O)N2CCC(CN3CCCCC3)CC2)c1	inactive	–
CCc1cccc(NC(=O)C2CCc3ncc(-c4ccsc4)n3C2)c1 (stereo not drawn)	inconclusive: 11.2 µM [inhibitor, single point]	–
COc1ccc(OC)c(CNc2sc3c(c2C(=O)Nc2cc(OC)ccc2OC)CCCC3)c1	inconclusive: 10 µM [inhibitor, single point]	–

SMILES	Potency	activity, negative = inhibition
Cc1ccc(NC(=O)NC[C@H]2O[C@@H](CC(=O)NCCN3CCOCC3)[C@H](O)[C@@H]2O)cc1	inactive	–
CC(=O)Nc1ccc(Nc2nnc(-c3ccc(C)c(S(N)(=O)=O)c3)c3ccccc23)cc1	inconclusive: 5.01 µM [inhibitor, partial curve, poor fit]	–
COc1cc2c(cc1OCc1ccncc1)NC(=O)C21CCN(Cc2ccncc2)CC1	inactive	–
c1cc2nc(-c3ccsc3)[nH]c2cn1	inconclusive: 28.2 µM [inhibitor, single point] and inconclusive: 14.1 µM [inhibitor, partial curve]	–
Cn1cc(-c2cccc(CO)c2)c2nc(CNc3ccccc3)cn2c1=O	inactive	–
CCC1CCCCN1C(=O)c1ccc(-c2nnc3ccc(NC(=O)C4CCC4)cn23)cc1 (stereo not drawn)	inconclusive: 3.16 µM [inhibitor, partial curve, poor fit]	–
Cc1ccc(C(=O)N2CCC3(CC2)NCCc2c3[nH]c3ccccc23)cn1	inconclusive: 12.6 µM [inhibitor, single point]	–
CSc1cccc(NC(=O)C2CCN(S(=O)(=O)c3ccc4[nH]c5c(c4c3)CCCCC5)CC2)c1	inconclusive: 14.1 µM [inhibitor, single point]	–
COc1ccc2c(c1)CC(C(=O)NCCN1CCN(c3cccc(C)c3C)CC1)CO2 (stereo not drawn)	inconclusive: 17.8 µM [inhibitor, single point]	–
Cc1nn(C(=O)CCCC(=O)N2CCC(Cc3nncn3CC3CC3)CC2)c2ccccc12	inconclusive: 1.12 µM [inhibitor, partial curve, poor fit]	–
CCC(C(=O)N1CCCN(c2cc(-c3ccc(OC)cc3)[nH]n2)CC1)c1ccccc1 (stereo not drawn)	inconclusive: 1.41 µM [inhibitor, partial curve, poor fit]	–
Cc1cccc(-c2ocnc2C(=O)N2CCCOCCNC(=O)CC2)c1	inactive	–
CCCC(=O)N1C[C@@H]2CCCN3CCC[C@@H]([C@H]23)[C@H]1CCCC(=O)NCC1CC1	inactive	–
Cc1ccsc1C(=O)Nc1ccc(-c2nnc3n2CCCC3)cc1	inconclusive: 6.31 µM [inhibitor, partial curve, poor fit]	–
Cc1ccc(NC(=O)c2oc3ccc(S(=O)(=O)N4CCC5(CC4)OCCO5)cc3c2C)c(C)c1	inconclusive: 1.12 µM [inhibitor, partial curve, poor fit]	–
COCCn1c(SCC(=O)Nc2ccc(C(F)(F)F)cc2)nc2c([nH]c3ccccc32)c1=O	inconclusive: 10 µM [inhibitor, single point]	–
O=C(NCc1ccc2c(c1)CCN2C(=O)c1ccccc1)c1ccco1	inconclusive: 11.2 µM [inhibitor, single point]	–
COCC(=O)NC[C@H]1C[C@@H]2CCN1C[C@@H]2c1cc(C2CCCCC2)nn1C	inconclusive: 11.2 µM [inhibitor, partial curve]	–
Cc1ccc(-c2c3c(=O)n(C)c(=O)n(C)c3cn2-c2cc(C)ccc2O)cc1	active: 5.62 µM	–
CC(=O)N1CCc2c(sc3c2c(=O)n(CCc2ccccc2)c(=O)n3Cc2cccc(C)c2)C1	inconclusive: 11.2 µM [inhibitor, single point]	–

SMILES	Potency	activity, negative = inhibition
O=c1c(=O)n(Cc2c(F)cccc2Cl)ccn1Cc1ccccc1	–	inconclusive: -45.1% [inhibitor] [at 0.594 µM]
COc1ccc(C(=O)NC2CCCN(c3cc(-c4ccc(Cl)cc4)[nH]n3)C2)cc1 (stereo not drawn)	inconclusive: 17.8 µM [inhibitor, single point]	–
COc1ccc(CN(C)C(=O)c2ccc3oc(C)cc3c2)c2cccnc12	inconclusive: 17.8 µM [inhibitor, partial curve, poor fit]	–
c1ccc(CCN2CCNc3cc(Nc4ccc(N5CCOCC5)cc4)ncc3C2)cc1	inconclusive: 3.55 µM [inhibitor, single point]	–
CCOc1cccc(NC(=O)c2ccc(F)c(S(=O)(=O)N(CC)c3cccc(C)c3)c2)c1	inconclusive: 11.2 µM [inhibitor, single point]	–
CCC(=O)Nc1ccc(C2(C(=O)N(C)C)CCC2)cc1	inactive	–
CC(C)CN1CC(COc2cccc(C(F)(F)F)c2)Oc2ccnc(-c3ccc(OCC(=O)O)cc3)c2C1=O (stereo not drawn)	inactive	–
Cc1ccc(Cn2cc(S(=O)(=O)c3ccc(C)cc3)c(=O)c3cc(F)c(N4CCCC4)cc32)cc1	inconclusive: 3.55 µM [inhibitor, partial curve, poor fit]	–
O=C1[C@H]2CN(Cc3ccc(Cl)c(F)c3)C[C@H]2C(=O)N1CCc1ccccc1	inconclusive: 6.31 µM [inhibitor, single point]	–
CCCn1ccnc1CN1CCCn2nc(-c3nc4ccccc4n3C)cc2C1	inconclusive: 12.6 µM [inhibitor, partial curve, poor fit]	–
COc1ccc(C(=O)Nc2ccc(-c3noc([C@@H]4CCCN4Cc4ccc(F)cc4)n3)cn2)cc1	inconclusive: 7.08 µM [inhibitor, partial curve, poor fit]	–
Cc1ccc(C(=O)N2CCC[C@H]2c2nc(-c3ccccc3Cl)no2)cc1	inactive	–
COc1ccc(-c2nc(-c3nnn4c3COC(c3ccc(Cl)cc3)C4)no2)c(OC)c1 (stereo not drawn)	inconclusive: 7.94 µM [inhibitor, partial curve, poor fit]	–
CC1CCC2(CC1)OCC(C(=O)NC(C)(C)C)N2C(=O)c1ccc(F)cc1 (stereo not drawn)	inconclusive: 3.55 µM [inhibitor, single point]	–
Cc1cc(C)c(CNC(=O)c2nc(-c3cccc(O)c3)cc3c2ccn3C(C)C)c(=O)[nH]1	inconclusive: 2.24 µM [inhibitor, partial curve, poor fit]	–
Cc1cccc(NC(=O)N2CCCC(Cn3c(C)nc4cccnc43)C2)c1 (stereo not drawn)	inconclusive: 10 µM [inhibitor, single point]	–
CCOc1ccc(NC(=O)c2cc3c(s2)CN(C2CCCC2)C3)cc1	inconclusive: 17.8 µM [inhibitor, single point]	–
O=Cc1ccc(N2CCN(C(=O)N3CCOCC3)CC2=O)cc1	inconclusive: 2.82 µM [inhibitor, partial curve, poor fit]	–
